In publication PMC9911399, “Two distinct binding modes provide the RNA-binding protein RbFox with extraordinary sequence specificity” one finds binding signal data, which are given here for 31 molecules.

Residue numbers refer to the chain shown, from its start. This is one part of the list.

To fix the notation:
T1: RBFOX1 RRM (Homo sapiens, UniProt Q9NWB1 109-208)
T1 sequence: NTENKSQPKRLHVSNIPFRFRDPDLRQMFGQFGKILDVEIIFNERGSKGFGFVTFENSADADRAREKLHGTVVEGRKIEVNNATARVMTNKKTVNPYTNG

B1: UCUCUGC (DNA:RNA)
RNA: GGGAGACCGGAAUUCAGAUUGUCCUCUCUGCUUAAAUCCCGUCGUAGCCACCA
DNA 1: CAATCTGAATTCCGGTCTCCC
DNA 2: TGGTGGCTACGACGGGATT
B2: UUGAAUU (DNA:RNA)
RNA: B1 RNA with C26U, U27G, C28A, U29A, G30U, C31U
DNA 1: CAATCTGAATTCCGGTCTCCC
DNA 2: TGGTGGCTACGACGGGATT
B3: UUCCUAA (DNA:RNA)
RNA: B1 RNA with C26U, U27C, G30A, C31A
DNA 1: CAATCTGAATTCCGGTCTCCC
DNA 2: TGGTGGCTACGACGGGATT
B4: AGGUCCC (DNA:RNA)
RNA: B1 RNA with U25A, C26G, U27G, C28U, U29C, G30C
DNA 1: CAATCTGAATTCCGGTCTCCC
DNA 2: TGGTGGCTACGACGGGATT
B5: CUGAUCA (DNA:RNA)
RNA: B1 RNA with U25C, C26U, U27G, C28A, G30C, C31A
DNA 1: CAATCTGAATTCCGGTCTCCC
DNA 2: TGGTGGCTACGACGGGATT
B6: CAUCUAU (DNA:RNA)
RNA: B1 RNA with U25C, C26A, G30A, C31U
DNA 1: CAATCTGAATTCCGGTCTCCC
DNA 2: TGGTGGCTACGACGGGATT
B7: CUAGGUA (DNA:RNA)
RNA: GGGAGACCGGAAUUCAGAUUGUCCCUAGGUAUUAAAUCCCGUCGUAGCCACCA
DNA 1: CAATCTGAATTCCGGTCTCCC
DNA 2: TGGTGGCTACGACGGGATT
B8: UCGGAAG (DNA:RNA)
RNA: B1 RNA with U27G, C28G, U29A, G30A, C31G
DNA 1: CAATCTGAATTCCGGTCTCCC
DNA 2: TGGTGGCTACGACGGGATT
B9: GUGAACG (DNA:RNA)
RNA: B7 RNA with C25G, A27G, G28A, G29A, U30C, A31G
DNA 1: CAATCTGAATTCCGGTCTCCC
DNA 2: TGGTGGCTACGACGGGATT
B10: UAAUUCG (DNA:RNA)
RNA: B1 RNA with C26A, U27A, C28U, G30C, C31G
DNA 1: CAATCTGAATTCCGGTCTCCC
DNA 2: TGGTGGCTACGACGGGATT
B11: CAUGCAA (DNA:RNA)
RNA: B7 RNA with U26A, A27U, G29C, U30A
DNA 1: CAATCTGAATTCCGGTCTCCC
DNA 2: TGGTGGCTACGACGGGATT
B12: GUAGGCA (DNA:RNA)
RNA: B7 RNA with C25G, U30C
DNA 1: CAATCTGAATTCCGGTCTCCC
DNA 2: TGGTGGCTACGACGGGATT
B13: AUUCAAG (DNA:RNA)
RNA: B1 RNA with U25A, C26U, U29A, G30A, C31G
DNA 1: CAATCTGAATTCCGGTCTCCC
DNA 2: TGGTGGCTACGACGGGATT
B14: AAGUAGC (DNA:RNA)
RNA: B1 RNA with U25A, C26A, U27G, C28U, U29A
DNA 1: CAATCTGAATTCCGGTCTCCC
DNA 2: TGGTGGCTACGACGGGATT
B15: AUUUCGU (DNA:RNA)
RNA: B1 RNA with U25A, C26U, C28U, U29C, C31U
DNA 1: CAATCTGAATTCCGGTCTCCC
DNA 2: TGGTGGCTACGACGGGATT
B16: CGGCAAC (DNA:RNA)
RNA: B1 RNA with U25C, C26G, U27G, U29A, G30A
DNA 1: CAATCTGAATTCCGGTCTCCC
DNA 2: TGGTGGCTACGACGGGATT
B17: ACGUUAC (DNA:RNA)
RNA: B1 RNA with U25A, U27G, C28U, G30A
DNA 1: CAATCTGAATTCCGGTCTCCC
DNA 2: TGGTGGCTACGACGGGATT
B18: ACCUCGC (DNA:RNA)
RNA: B1 RNA with U25A, U27C, C28U, U29C
DNA 1: CAATCTGAATTCCGGTCTCCC
DNA 2: TGGTGGCTACGACGGGATT
B19: ACAGAAU (DNA:RNA)
RNA: B7 RNA with C25A, U26C, G29A, U30A, A31U
DNA 1: CAATCTGAATTCCGGTCTCCC
DNA 2: TGGTGGCTACGACGGGATT
B20: GGAUUUC (DNA:RNA)
RNA: B7 RNA with C25G, U26G, G28U, G29U, A31C
DNA 1: CAATCTGAATTCCGGTCTCCC
DNA 2: TGGTGGCTACGACGGGATT
B21: UUGGACG (DNA:RNA)
RNA: B7 RNA with C25U, A27G, G29A, U30C, A31G
DNA 1: CAATCTGAATTCCGGTCTCCC
DNA 2: TGGTGGCTACGACGGGATT
B22: AUAUGCA (DNA:RNA)
RNA: B7 RNA with C25A, G28U, U30C
DNA 1: CAATCTGAATTCCGGTCTCCC
DNA 2: TGGTGGCTACGACGGGATT
B23: ACACUGG (DNA:RNA)
RNA: B1 RNA with U25A, U27A, C31G
DNA 1: CAATCTGAATTCCGGTCTCCC
DNA 2: TGGTGGCTACGACGGGATT
B24: GACCAGA (DNA:RNA)
RNA: B1 RNA with U25G, C26A, U27C, U29A, C31A
DNA 1: CAATCTGAATTCCGGTCTCCC
DNA 2: TGGTGGCTACGACGGGATT
B25: ACUGUGC (DNA:RNA)
RNA: B1 RNA with U25A, C28G
DNA 1: CAATCTGAATTCCGGTCTCCC
DNA 2: TGGTGGCTACGACGGGATT
B26: CGUAUGU (DNA:RNA)
RNA: B1 RNA with U25C, C26G, C28A, C31U
DNA 1: CAATCTGAATTCCGGTCTCCC
DNA 2: TGGTGGCTACGACGGGATT
B27: UCCCUCU (DNA:RNA)
RNA: B1 RNA with U27C, G30C, C31U
DNA 1: CAATCTGAATTCCGGTCTCCC
DNA 2: TGGTGGCTACGACGGGATT
B28: UUACAGG (DNA:RNA)
RNA: B1 RNA with C26U, U27A, U29A, C31G
DNA 1: CAATCTGAATTCCGGTCTCCC
DNA 2: TGGTGGCTACGACGGGATT
B29: GAACGCG (DNA:RNA)
RNA: B7 RNA with C25G, U26A, G28C, U30C, A31G
DNA 1: CAATCTGAATTCCGGTCTCCC
DNA 2: TGGTGGCTACGACGGGATT
B30: CAGGUUU (DNA:RNA)
RNA: B7 RNA with U26A, A27G, G29U, A31U
DNA 1: CAATCTGAATTCCGGTCTCCC
DNA 2: TGGTGGCTACGACGGGATT
B31: CAAAAAA (DNA:RNA)
RNA: B7 RNA with U26A, G28A, G29A, U30A
DNA 1: CAATCTGAATTCCGGTCTCCC
DNA 2: TGGTGGCTACGACGGGATT

The assay addresses T1, RBFOX1 RRM. As to the kind of experiment: EMSA; HiTS-Eq, 1 nM pool, 10 min; buffer printed only for the single-RNA assays: 10 mM Tris pH 7.5, 150 mM NaCl, 3.4 mM EDTA, 0.001% NP-40, 30 C. To be noted: tags: His6 N-terminal (pET28a); label: 5' 32P. The method, boiled down: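 Purified RbFox RRM (wild type or mutant) was equilibrated for 10 min in 50 µL with 1 nM of a 5′-radiolabelled pool of RNA with 7 randomized nucleotides, its flanks annealed to DNA oligonucleotides, across increasing protein concentrations. Free RNA was separated by 8% native PAGE, excised, reverse-transcribed, PCR-barcoded and sequenced on an Illumina HiSeq 2500. Relative association constants came from read-count changes of each variant against the control reaction, normalised to the cognate motif.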
(In EMSA bound probe runs differently from free probe, usually more slowly.)
As for B1, the binding signal is 0.0167 KA relative to UGCAUGU.

With B2, the binding signal was 0.0117 KA relative to UGCAUGU.

In the case of B3, the binding signal is 0.00248 KA relative to UGCAUGU.

For the molecule B4, the binding signal was 0.00339 KA relative to UGCAUGU.

Consider B5, for which the binding signal is 0.00698 KA relative to UGCAUGU.

As for B6, the binding signal is 0.000674 KA relative to UGCAUGU.

Consider B7, for which the binding signal is 0.0093 KA relative to UGCAUGU.

On to B8, for which the binding signal is 0.0125 KA relative to UGCAUGU.

With B9, the binding signal is 0.0163 KA relative to UGCAUGU.

As for B10, the binding signal was 0.0125 KA relative to UGCAUGU.

For the molecule B11, the binding signal was 0.00451 KA relative to UGCAUGU.

B12: the binding signal was 0.0151 KA relative to UGCAUGU.

B13: the binding signal was 0.00061 KA relative to UGCAUGU.

As for B14, the binding signal was 0.0116 KA relative to UGCAUGU.

Regarding B15, the binding signal is 0.0125 KA relative to UGCAUGU.

For B16, the binding signal was 0.0128 KA relative to UGCAUGU.

Regarding B17, the binding signal is 0.00513 KA relative to UGCAUGU.

As to B18, the binding signal is 0.0038 KA relative to UGCAUGU.

Turning to B19, the binding signal was 0.000791 KA relative to UGCAUGU.

Turning to B20, the binding signal is 0.0284 KA relative to UGCAUGU.

Turning to B21, the binding signal is 0.00919 KA relative to UGCAUGU.

With B22, the binding signal is 0.0145 KA relative to UGCAUGU.

Consider B23, for which the binding signal is 0.00817 KA relative to UGCAUGU.

For B24, the binding signal is 0.0115 KA relative to UGCAUGU.

For the molecule B25, the binding signal is 0.0129 KA relative to UGCAUGU.

B26: the binding signal was 0.0134 KA relative to UGCAUGU.

For the molecule B27, the binding signal is 0.00263 KA relative to UGCAUGU.

As for B28, the binding signal was 0.00329 KA relative to UGCAUGU.

As to B29, the binding signal was 0.0153 KA relative to UGCAUGU.

On to B30, for which the binding signal is 0.0116 KA relative to UGCAUGU.

Consider B31, for which the binding signal was 0.00226 KA relative to UGCAUGU.
